Tests used:
[1] = biological target: GUCY2C on tumour cells (CW2, CW2-GCC#1, T84) (human, UniProt P25092 24-1073); assay: cell-based or functional assay
[2] = biological target: T1, GUCY2C-Fc蛋白 (human GUCY2C extracellular region fused to human IgG1 Fc) (human, UniProt P25092 partial chain); assay: ELISA, GUCY2C-Fc coated, anti-human IgG Fab HRP (Table 12)
T1 construct: extracellular domain; Made in HEK-293F with an unspecified N-terminal signal peptide; also called 人GUCY2C-Fc蛋白; not shown: human IgG1 Fc at the C-terminus in place of the 6xHis tag

[3] = biological target: T1, GUCY2C-Fc蛋白 (human GUCY2C extracellular …); assay: ELISA, GUCY2C-Fc coated, anti-human IgG Fab HRP (Table 11)
[4] = biological target: T2, CD3ε-ECD-his (UniProt P07766 23-126); assay: ELISA, CD3ε-ECD-his coated at 1 ug/mL, anti-human IgG Fab HRP (Table 14)
T2 construct: extracellular domain; also called CD3ε蛋白

[5] = biological target: T3, GUCY2C-His蛋白 (human GUCY2C extracellular region with C-terminal 6xHis) (human, UniProt P25092 partial chain); assay: ELISA, GUCY2C-His coated, anti-human IgG Fab HRP (Table 10)
T3 construct: extracellular domain; Made in HEK-293F with an unspecified N-terminal signal peptide; also called 人GUCY2C-His蛋白

[6] = biological target: T3, GUCY2C-His蛋白 (human GUCY2C …); assay: ELISA, GUCY2C-His coated, anti-human IgG Fab HRP (Table 9)

CD3ε-ECD-his, sequence (P07766 other isoform, or with tags, fused parts or gaps): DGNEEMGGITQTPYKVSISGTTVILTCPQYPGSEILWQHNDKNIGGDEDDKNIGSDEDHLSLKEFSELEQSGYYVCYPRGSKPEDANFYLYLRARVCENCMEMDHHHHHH

EC50 [2]: 0.43 nM | EC50 [3]: 0.29 nM | EC50 [4]: 0.35 nM | EC50 [5]: 1.18 nM | EC50 [6]: 1.23 nM
B1: 10D7CH1-SP4VHL (bispecific antibody)
heavy: QVQLVESGGGVVQPGRSLRLSCAVSGFTFSNYGVHWVRQAPGKGLEWLGVIWSGGRKDYNAAFISRLTISKDNSKSTVYLQMNSLRAEDTAVYYCARHGTYPYWYFALWGQGTLVTVSSASTKGPSVFPLAPSSKSTSGGTAALGCLVKDYFPEPVTVSWNSGALTSGVHTFPAVLQSSGLYSLSSVVTVPSSSLGTQTYICNVNHKPSNTKVDKKVEPKSCGGGGSGGGGSGGGGSEVQLVESGGGLVQPGGSLRLSCAASGFTFNTYAMNWVRQAPGKGLEWVARIRSKYNNYATYYADSVKDRFTISRDDSKNTLYLQMNSLRAEDTAVYYCVRHGNFGNSYVSWFAYWGQGTLVTVSSGGGGSGGGGSGGGGSGGGGSQAVVTQEPSLTVSPGGTVTLTCRSSTGAVTTSNYANWVQQKPGQAPRGLIGGTNKRAPGVPARFSGSLLGGKAALTLSGAQPEDEAEYYCALWYSNLWVFGQGTKVEIKGGGS[letters of human IgG1 Fc left out]
light: DIQMTQSPSSLSASVGDRVTITCRASQDISNYLNWYQQKPGKTFKLLVYYTSRLQSGVPSRFSGSGSGTDYTFTISSLQPEDIATYFCQQGKTLPFSFGQGTKVEIKRTVAAPSVFIFPPSDEQLKSGTASVVCLLNNFYPREAKVQWKVDNALQSGNSQESVTEQDSKDSTYSLSSTLTLSKADYEKHKVYACEVTHQGLSSPVTKSFNRGEC
notes: also called 结构7
IC50 of T-cell-mediated killing of CW2 cells (CTG, E:T 5:1, 96 h) [1]: 0.02 nM

From patent CN116284426A (SUNSHINE GUOJIAN PHARMACEUTICAL SHANGHAI CO LTD, dated 2023)
